# The other results are listed elsewhere or left out.
# B1: CPA (Cicer arietinum) (protein)
# chain: MAFSYLNLVLVTLTTLFFLQTTKVKSQKSVSFHITNFTISRPSITLQGTAEFLPNVLLLNDIEHPVFVVGRALYSKPITLWNNKTGKVASFVTSFTFDVQDLKKTVPGHGLVFFLAPSGSEIPFSSDGGNLGVVDGKNAFNRFVGVEFDNFVNSWDPKYSHVGINVNSLISTKTVKWNRVSGELVKVSIVYDSVSTTLTVIVTYKNGQISILSQLVDLKAVLPDTVNIGFSASTTLVSPRQLHNIHSWSFTSTFET
# Experiments:
# Assay in all cases: glycan array binding signal (z-score within array); higher = stronger binding
# Details in all cases: glycan notation: IUPAC condensed, linker removed
# [1] = biological target: Gal(b1-3)[GlcNAc(b1-6)]GalNAc
# In short: (§1)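 Negative Z-scores can be read as non-binding. The Z-score is calculated within each array and then averaged across arrays of one protein sequence at different concentrations or buffers and across linkers. Arrays, 3228 in all, were curated from the Consortium for Functional Glycomics database and kept only where the protein sequence was available.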
# [2] = biological target: Gal(b1-3)[Neu5Ac(a2-6)]GalNAc
# In short: as §1
# [3] = biological target: Gal(b1-3)[Neu5Ac(a2-6)]GlcNAc(b1-4)Gal(b1-4)Glc
# In short: as §1
# [4] = biological target: Gal(b1-3)[Neu5Ac(b2-6)]GalNAc
# In short: as §1
# [5] = biological target: Gal(b1-4)Gal
# In short: as §1
# [6] = biological target: Gal(b1-4)GalNAc(a1-3)[Fuc(a1-2)]Gal(b1-4)GlcNAc
# In short: as §1
# [7] = biological target: Gal(b1-4)GalNAc(b1-3)[Fuc(a1-2)]Gal(b1-4)GlcNAc
# In short: as §1
# [8] = biological target: Gal(b1-4)Glc
# In short: as §1
# [9] = biological target: Gal(b1-4)Glc6S
# In short: as §1
# [10] = biological target: Gal(b1-4)GlcNAc
# In short: as §1
# [11] = biological target: Gal(b1-4)GlcNAc(a1-6)Gal(b1-4)GlcNAc
# In short: as §1
# [12] = biological target: Gal(b1-4)GlcNAc(b1-2)Man
# In short: as §1
# [13] = biological target: Gal(b1-4)GlcNAc(b1-2)Man(a1-3)Man(b1-4)GlcNAc(b1-4)GlcNAc
# In short: as §1
# [14] = biological target: Gal(b1-4)GlcNAc(b1-2)Man(a1-3)[Gal(b1-4)GlcNAc(b1-2)Man(a1-6)]Man(b1-4)GlcNAc(b1-4)GlcNAc
# In short: as §1
# [15] = biological target: Gal(b1-4)GlcNAc(b1-2)Man(a1-3)[Gal(b1-4)GlcNAc(b1-2)Man(a1-6)]Man(b1-4)GlcNAc(b1-4)[Fuc(a1-6)]GlcNAc
# In short: as §1
# [16] = biological target: Gal(b1-4)GlcNAc(b1-2)Man(a1-3)[Gal(b1-4)GlcNAc(b1-2)Man(a1-6)][Gal(b1-4)GlcNAc(b1-4)]Man(b1-4)GlcNAc(b1-4)[Fuc(a1-6)]GlcNAc
# In short: as §1
# [17] = biological target: Gal(b1-4)GlcNAc(b1-2)Man(a1-3)[Gal(b1-4)GlcNAc(b1-2)Man(a1-6)][GlcNAc(b1-4)]Man(b1-4)GlcNAc(b1-4)[Fuc(a1-6)]GlcNAc
# In short: as §1
# [18] = biological target: Gal(b1-4)GlcNAc(b1-2)Man(a1-3)[GlcNAc(b1-2)Man(a1-6)]Man(b1-4)GlcNAc(b1-4)GlcNAc
# In short: as §1
# [19] = biological target: Gal(b1-4)GlcNAc(b1-2)Man(a1-3)[GlcNAc(b1-4)][Gal(b1-4)GlcNAc(b1-2)Man(a1-6)]Man(b1-4)GlcNAc(b1-4)GlcNAc
# In short: as §1
# [20] = biological target: Gal(b1-4)GlcNAc(b1-2)Man(a1-3)[Man(a1-6)]Man(b1-4)GlcNAc(b1-4)GlcNAc
# In short: as §1
# [21] = biological target: Gal(b1-4)GlcNAc(b1-2)Man(a1-6)Man(b1-4)GlcNAc(b1-4)GlcNAc
# In short: as §1
# [22] = biological target: Gal(b1-4)GlcNAc(b1-2)Man(a1-6)[GlcNAc(b1-2)Man(a1-3)]Man(b1-4)GlcNAc(b1-4)GlcNAc
# In short: as §1
# [23] = biological target: Gal(b1-4)GlcNAc(b1-2)Man(a1-6)[Man(a1-3)]Man(b1-4)GlcNAc(b1-4)GlcNAc
# In short: as §1
# [24] = biological target: Gal(b1-4)GlcNAc(b1-2)[Gal(b1-4)GlcNAc(b1-4)]Man(a1-3)[Gal(b1-4)GlcNAc(b1-2)Man(a1-6)]Man(b1-4)GlcNAc(b1-4)GlcNAc
# In short: as §1
# [25] = biological target: Gal(b1-4)GlcNAc(b1-2)[Gal(b1-4)GlcNAc(b1-4)]Man(a1-3)[Gal(b1-4)GlcNAc(b1-2)[Gal(b1-4)GlcNAc(b1-6)]Man(a1-6)]Man(b1-4)GlcNAc(b1-4)GlcNAc
# In short: as §1
# [26] = biological target: Gal(b1-4)GlcNAc(b1-2)[Gal(b1-4)GlcNAc(b1-4)]Man(a1-3)[GlcNAc(b1-4)][Gal(b1-4)GlcNAc(b1-2)Man(a1-6)]Man(b1-4)GlcNAc(b1-4)GlcNAc
# In short: as §1
# [27] = biological target: Gal(b1-4)GlcNAc(b1-2)[Gal(b1-4)GlcNAc(b1-4)]Man(a1-3)[GlcNAc(b1-4)][Gal(b1-4)GlcNAc(b1-2)[Gal(b1-4)GlcNAc(b1-6)]Man(a1-6)]Man(b1-4)GlcNAc(b1-4)GlcNAc
# In short: as §1
# [28] = biological target: Gal(b1-4)GlcNAc(b1-2)[Gal(b1-4)GlcNAc(b1-6)]Man(a1-6)[Gal(b1-4)GlcNAc(b1-2)Man(a1-3)]Man(b1-4)GlcNAc(b1-4)GlcNAc
# In short: as §1
# [29] = biological target: Gal(b1-4)GlcNAc(b1-2)[Gal(b1-4)GlcNAc(b1-6)]Man(a1-6)[Gal(b1-4)GlcNAc(b1-2)Man(a1-3)]Man(b1-4)GlcNAc(b1-4)[Fuc(a1-6)]GlcNAc
# In short: as §1
# [30] = biological target: Gal(b1-4)GlcNAc(b1-2)[Gal(b1-4)GlcNAc(b1-6)]Man(a1-6)[GlcNAc(b1-4)][Gal(b1-4)GlcNAc(b1-2)Man(a1-3)]Man(b1-4)GlcNAc(b1-4)GlcNAc
# In short: as §1
# [31] = biological target: Gal(b1-4)GlcNAc(b1-2)[Gal(b1-4)GlcNAc(b1-6)]Man(a1-6)[GlcNAc(b1-4)][Gal(b1-4)GlcNAc(b1-2)[Gal(b1-4)GlcNAc(b1-4)]Man(a1-3)]Man(b1-4)GlcNAc(b1-4)[Fuc(a1-6)]GlcNAc
# In short: as §1
# [32] = biological target: Gal(b1-4)GlcNAc(b1-3)Gal(b1-3)GalNAc
# In short: as §1
# [33] = biological target: Gal(b1-4)GlcNAc(b1-3)Gal(b1-3)GlcNAc
# In short: as §1
# [34] = biological target: Gal(b1-4)GlcNAc(b1-3)Gal(b1-4)Glc
# In short: as §1
# [35] = biological target: Gal(b1-4)GlcNAc(b1-3)Gal(b1-4)GlcNAc
# In short: as §1
# [36] = biological target: Gal(b1-4)GlcNAc(b1-3)Gal(b1-4)GlcNAc(b1-2)Man(a1-3)[Gal(b1-4)GlcNAc(b1-3)Gal(b1-4)GlcNAc(b1-2)Man(a1-6)]Man(b1-4)GlcNAc(b1-4)GlcNAc
# In short: as §1
# [37] = biological target: Gal(b1-4)GlcNAc(b1-3)Gal(b1-4)GlcNAc(b1-2)Man(a1-3)[Gal(b1-4)GlcNAc(b1-3)Gal(b1-4)GlcNAc(b1-2)Man(a1-6)]Man(b1-4)GlcNAc(b1-4)[Fuc(a1-6)]GlcNAc
# In short: as §1
# [38] = biological target: Gal(b1-4)GlcNAc(b1-3)Gal(b1-4)GlcNAc(b1-2)[Gal(b1-4)GlcNAc(b1-3)Gal(b1-4)GlcNAc(b1-6)]Man(a1-6)[Gal(b1-4)GlcNAc(b1-3)Gal(b1-4)GlcNAc(b1-2)Man(a1-3)]Man(b1-4)GlcNAc(b1-4)GlcNAc
# In short: as §1
binder,measurement,setting,value
B1,glycan array binding signal (z-score),[1],-0.164
same,glycan array binding signal (z-score),[2],-0.522
same,glycan array binding signal (z-score),[3],0.118
same,glycan array binding signal (z-score),[4],-0.733
same,glycan array binding signal (z-score),[5],-0.299
same,glycan array binding signal (z-score),[6],-0.399
same,glycan array binding signal (z-score),[7],-0.397
same,glycan array binding signal (z-score),[8],-0.475
same,glycan array binding signal (z-score),[9],-0.254
same,glycan array binding signal (z-score),[10],-0.283
same,glycan array binding signal (z-score),[11],-0.222
same,glycan array binding signal (z-score),[12],-0.366
same,glycan array binding signal (z-score),[13],-0.519
same,glycan array binding signal (z-score),[14],-0.111
same,glycan array binding signal (z-score),[15],0.037
same,glycan array binding signal (z-score),[16],-0.529
same,glycan array binding signal (z-score),[17],-0.491
same,glycan array binding signal (z-score),[18],0.069
same,glycan array binding signal (z-score),[19],-0.444
same,glycan array binding signal (z-score),[20],-0.28
same,glycan array binding signal (z-score),[21],-0.655
same,glycan array binding signal (z-score),[22],-0.609
same,glycan array binding signal (z-score),[23],-0.041
same,glycan array binding signal (z-score),[24],-0.562
same,glycan array binding signal (z-score),[25],-0.088
same,glycan array binding signal (z-score),[26],-0.483
same,glycan array binding signal (z-score),[27],-0.371
same,glycan array binding signal (z-score),[28],0.586
same,glycan array binding signal (z-score),[29],-0.772
same,glycan array binding signal (z-score),[30],-0.085
same,glycan array binding signal (z-score),[31],0.092
same,glycan array binding signal (z-score),[32],-0.544
same,glycan array binding signal (z-score),[33],-0.722
same,glycan array binding signal (z-score),[34],-0.329
same,glycan array binding signal (z-score),[35],-0.11
same,glycan array binding signal (z-score),[36],2.88
same,glycan array binding signal (z-score),[37],-0.412
same,glycan array binding signal (z-score),[38],0.816

# Reference: the supplement of paper PMC8728848
